Experimental data taken from the RNAGym collection of RNA variant scans (doi:10.7554/elife.90254).
Read counts are not given, so values of variants with three or more changes are uncertain.

B1: LINE1-full (parent)
chain: UACGUAGGUGGUUUUCCCCUGAUAGUGCUAAGGGGGCCUGGAAGUUUGGACUGGGCAGAGCUCAACACAGCGUGGCAAAGUGGCUGUGGCUAGACUGCCUCUCUGGAUUCCUCGUCACUCAGCAGGGCAUCUCUGAGAGAAAUGCC

Variants of: B1
Experiment: self-cleavage, relative activity (ratio to wild type); higher = more cleavage; in vitro, sequencing; the parent is a self-cleaving ribozyme
For UACGUAGGUGGUUUUCCCCCGAUAGUGCUAAGGGGGCCUGGAAGUUUGGACUGGGCAGAGCUCAACACAGCGUGGCAAAGAGGCUGUGGCUAGACUGCCUCUCGGGAUUCCUCGUCACUCAGCAGGGCAUCUCUGAGAGAAAUGCC [U20C U81A U104G], the self-cleavage was 2.02. Variant UACGUAGGUGGUUUUCCCCUGAUAGUGCUAAGGGGGCCUGGAAGCCUGGACUGGGCAGAGCUCAACACAGCGUGGCAAAGUGGCUGUGGCUAGACUGCCUCUCUGGAUUCCUCGUCACUCAGCAGGGCAUCUCUGAGAGGAAUGCC [U45C U46C A140G] has a self-cleavage of 1.27. UACGUAGGUGGCUUUCCCCUGAUAGUGCUAAGGGGGCCUGGAAGUUUGGACUGGGCAGAGCUCAACACAGCGCGGCAAAGUGGCUGUGGCUAGACUGCCUCUCUGGAUUCCUCGUCACUCAGCAGGGCGUCUCUGAGAGAAAUACU [U12C U73C A129G G144A C146U] showed a self-cleavage of 2.3. For UACGCAGGUGGUCUUCCCCUGAUGGUGCUAAGGGGGCCUGGAAGUUUGGACUGGGCAGAGCUCAACACAGCGUGGCAAAGUGGCUGUGGCUAGACUGCCUCUCUGGAUUCCUCGUCACUCAGCAGGGCAUCUCUGAGAGAAAUGCC [U5C U13C A24G], the self-cleavage was 0.57. Work on UACGUAGGUGGUUUUCCCCUGAUAGUGCUAAGGGGGCCUGGAAGUUUGGACUGGGCAGAGCUCAACGCAGCGUGGCAAAGUGGCAGUGGCUAGACUGCCUCCCUGGAUUCCUCGUCACUCAGCAGGGCAUCUCUGAGAGAAAUGCC [A67G U85A U102C] yielded a self-cleavage of 0.09. Work on UACGUAGGUGGUUUUCCCCUGAUAGUGCUAAGGGGGCCUGGAAGUUCGGACUGGGCAGAGCUCAACACAGCGUGGCAAGGUGGCUGUGGCUAGACUGCCUCUCUGGAUUCCUCGUCACUCAGCAGGACAUCUCUGAGAGAAAUGCC [U47C A79G G127A] yielded a self-cleavage of 1.16. Work on UACGUAGGUGGUUUUCCCCUGAUAGUGCUAAGGGGGCCUGGAAGUUAGGACUGGGCAGAGCUCAACACAGCGUGGCAAAGUGGCUGUGGCUAGACUGCCUCUCUGGAUUCCUCGUCACUCAUCAGGGUAUCUCUGAGGGAAAUGCC [U47A G122U C128U A138G] yielded a self-cleavage of 1.1. Variant UACGUAGGUGGCUUUCCCCUGAUAGUGCUAGGGGGGCCUGGAAGUUUGGACUGGGCAGAGCUCAACACAGCGUGGCAAAGUGGCUGUGGCUAGACUGCCUCUCUGGAUUCCUCGUCACUCAGCAGGGCACCUCUGAGAGAAAUGCC [U12C A31G U130C] has a self-cleavage of 1.34. With UACGUAGGUGGUUUUCCCUUGAUAGUGCUAAGGGGGCCUGGAAGUUUGGACUGGGCAGAGCUCAACACAGCGAGGCAAGGUGGCUGUGGCUAGACUGCCUCUCUGGAUUCCUCGUCACUCAGCAGGGCAUCUCUGAGGGAAAUGCC [C19U U73A A79G A138G] the self-cleavage was 0.71. Variant UACGUAGGUGGUUUUCCCCUGCUAGUGCUAAGGGGGCCUGGAAGUUUGGACUGGGCAGAGCACAACACAGCGUGGCAAAGUGGCUGUGGCUAGACCGCCUCUCUGGAUUCCUCGUCACUCAGCAGGGCAACUCUGAGAGAAAUGCC [A22C U62A U96C U130A] has a self-cleavage of 0.05. With UACGUAGGUGGUUUUCCCCUGAUAGUGCUAAGGGGGCCUGGAAGUUUGGACUGGGCAGAGCUCAACACAGCGCGGCAAAGUGGCUGUGGCUAGACUGCCUCUCUGGAUUCCUAGUCACUCAGCAGGGCAUCCCUGAGAGAAAUGCC [U73C C113A U132C] the self-cleavage was 1.61. Work on UACGUAGGUGGUUUUCCCUUGAUAGUGCUAAGGGGGCCUGGAAGUUUGGACUGGGCAGAGCUCAACACAGCGUGGCAAAGUGGCUGUGGCUAGACUGCCUCUCCGGAUUGCUCGUCACUCAGCAGGGCAUCUCUGAGAGAAAUGCC [C19U U104C C110G] yielded a self-cleavage of 0.9. Variant UACGUAGGUGGUUCUCCCCUGAUAGUGCUAAGGGGGCCUGGAAGUUUGGACUGGGCGGAGCUCAACACAGCGUGGCAAAGUGGCUGUGGCUAGACUGCCUCUCUGGAUUCCUCGUCACUCAGCAGGGCAUCUCUGGGAGAAAUGCC [U14C A57G A136G] has a self-cleavage of 2.45. For UACGUAGGUGGUUUUCCCCUGAUAGUGCUAAGGGGGCCUGGAAGUUUGGACUGAGCAGAGCUCAACUCAGCGUGGCAAAGUGGCUGUGGCUAGACUGCCUCUCUGGACUCCUCGUCACUCAGCAGGGCAUCUCUGAGAGAAAUGCC [G54A A67U U108C], the self-cleavage was 0.04. Variant UACGUAGGUGGUUUUCCCCUGAUAGUGCUAAGGGGGCCUGGAAGUUUGGACUGGGCAGAGCUCGACACAGCGUGGCAAAGUGGCUGUGGCUAGACUGCCUCCCUGGAUUCCUCGCCACUCAGCAGGGCAUCUCUGGGAGAAAUGCC [A64G U102C U115C A136G] has a self-cleavage of 0.46. With UACGUAGGUGGUUUCCCCCUGAUAGUGCUAAGGGGGCCUGGAAGUUUGGACUGGGCAGAGCACAACACAGCGUGGCAAAGUGGCUGUGGCUAGACUGCCUCUCUGGAUUCCUCGUCGCUCGGCAGGGCAUCUCUGAGAGAAAUGCC [U15C U62A A117G A121G] the self-cleavage was 0. Variant UACGUGGGUGGUUUUCCCCUGAUAGAGCUAAGGGGGCCUGGAAAUUUGGACUGGGCAGGGCUCAACACAGCGUGGCAAAGUGGCUGUGGCUAGACUGCCUCUCUGGAUUCCUCGUCACUCAGCAGGGCAUCUCUGAGAGAAAUGCC [A6G U26A G44A A59G] has a self-cleavage of 0.23. Variant UACGUAGGUGGUUUUCCCCUGAUAGUGCUAAGGGGGCCUGGAAGUUUGGACUGGGCAGAGCUCAACACAGCGUGGCGAAGUGGCUGUGGCUAGACUGCCUCUCUGGAUUCCUCGUCACUCAGCAGGGCACCUCUGAGAGGAAUGAC [A77G U130C A140G C145A] has a self-cleavage of 2.76. UACGUAGGUGGUUUUCCCUUGAUAGUGCUAAGGGGGCCUGGAAGUUUGGACUGGGCAGAGCUCGACACAGCGUGGCGAAGUGGCUGUGGCUAGACUGCCUCUCUGGAUUCCUCGUCACUCAGCAGGGCAUCUCUGAGAGAAAUGCC [C19U A64G A77G] showed a self-cleavage of 0.15. UACGUAGGUGGUUUCCCCCUGAUAGUGCUAAGGGGGCCUGGAAGUUGGGACAGGGCAGAGCUCAACACAGCGUGGCAAAGUGGCUGUGGCUAGACUGCCUCUCUGGAUUCCUCGUCACUCAGCAGGGCAUCUCUGAGAGAAAUGCC [U15C U47G U52A] gave a self-cleavage of 1.34. UACGUAGGUGGUUUUCCCCUGAUAGUGCUGAGGGGGCCUGGAAGUUUGGACUGGGCAGAGCUCGACACAGCGUGGCAAAGUGGCUGUGGCUAGACUGCCUCUCUGGAUUCCUUGUCACUCAGCAGGGCAUCUCUGAGAGAAAUGCC [A30G A64G C113U] gave a self-cleavage of 0.53. With UACGUAGGUGGUUUUCCCCUGAUAGUGCCAAGGGGGCCUGGAAGUUUGGACUGGGCAGAGCUCAACGCAGCGUGGCGAAGUGGCUGUGGCUAGACUGCCUCUCUGGAUUCCUCGUCACUCAGCAGGGCAUCUCUGAGAGAAAUGCC [U29C A67G A77G] the self-cleavage was 0. In the case of UACGUAGGUGGUUCUCCCCUGAUAGUGCUAAGGGGGCCUGGAAGUUUGGACUGGGCAGAGCUCAACACAGCGUGGCAAAGUGGCUGUGGCUAGACCGCCUCUCCGGAUUCCUCGUCACCCAGCAGGGCAUCUAUGAGAGAAAUGCC [U14C U96C U104C U119C C133A], the self-cleavage is reported as 0. For UACGUAGGUGGUUUUCCCCUGAUAGUGCUAAGGGGGCCUGGAAGUUUGGACUGGGCAGAGCCCAACACAGCGUGGCAAAGUGGCUGUGGCUAGACUGACUCUCCGGAUUCCUCGUCACUCAGCAGGGCAUCUCUGAGAGAAGUGCC [U62C C98A U104C A142G], the self-cleavage was 0.04. UGCGUAGGCGGUUUUCCCCUGAUAGUGCUAAGGGGGCCUGGAAGUUUGGACUGGGCAGAGCUCAACACAGCGUGGCAAAGUGGCUGUGGCUUGACUGCCUCUCUGGAUUCCUCGUCACUCAGCAGGGCAUCUCUGAGAGAAAUGCC [A2G U9C A92U] gave a self-cleavage of 0.34. UACGUAGGUGGUUUUCCCCUGAUAGUGCUAAGGGGGCCUGGAAGUUUGGACUGGGCAGAGCUCAACACAGCGUGGCAAAGUGGCUGUGGCUAGACUGCCCCUCUGGAUUCCUCGUCACUCAGCUGGGCAUCUCCGAGAGAAAUGCC [U100C A124U U134C] gave a self-cleavage of 2.24. Variant UACGUAGGUGGUUUUCCCCUGGUAGUGCUAAGGGGGCCUGGAAGUUUGGACUGGGCAGAGCUCAACACAGCGUGGCAAAGCGGCUGUGGCUAGACUGCCUCUCUGGAUUCCUCGUCACUCAGCAGGGCAUCUCUGAGAGGAAUGCC [A22G U81C A140G] has a self-cleavage of 0.66. UACGUAGGUGGCUUUCCCCUGAUCGUGCUAAGGGGGCCUGGAAGUUUGGACUGGGCAGAGCUCAACACAGCGUGGCAAAGUGGCUGUGGCUAGACUGCCUCUCUGGAUUCCUCGUCACUCAGCAGGGCAUCUCAGAGAGAAAUGCC [U12C A24C U134A] gave a self-cleavage of 1.79. Variant UACGUAGGUGGUUUUCCCCUGAUAGUGCUAAGGGGGCCAGGAAGUUUGGACAGGGCAGAGCUCAACACAGCGUGGCAGAGUGGCUGUGGCUAGACUGCCUCUCUGGAUUCCUCGUCACUCAGCAGGGCAUCUCUGAGAGGAAUGCC [U39A U52A A78G A140G] has a self-cleavage of 1.11. For UACGUAGGUGGUUUUCUCCUGGCAGUGCUAAGGGGGCCUGGAAGUUUGGACUGGGCAGAGCUCAACGCAGCGUGGCAAAGUGGCUGUGGCUAGACUGCCUCUCUGGAUUCCUCGUCACUCAGCAGGGCAUCUCUGAGAGUAAUGCC [C17U A22G U23C A67G A140U], the self-cleavage was 1.75. With UACGUAGGUGGUUUUCCCCUGGUAGUGCUAAGGGGGCCUGGAAGUUUGGACUGGGCAGAGCACAACACAGCGUGGCAAAGUGGCUGUGGCUAGACUGCCUCUCUGGAUUCCUCGUCGCUCAGCAGGGCACCUCUGAGAGAAAUGCC [A22G U62A A117G U130C] the self-cleavage was 0.47. UACGUAGGUGGUUUUCCCCUGAUAGCGCUAAGGGGGCCUGGAAGUCUGGACUGGGCAGAGCUCAACACAGCGUGGCAAAGUGGCUGUGGCUAGACUGCCUCCCUGGAUUCCUCGUCACUCAGCAGGGCAUCUCUGAGAGAAAUGCC [U26C U46C U102C] gave a self-cleavage of 0.35. Variant UACGUAGGUGGUUUUCCCCUGGUAGUGCUAAGGGGGCCUGAAAGUUUGGACUGGGCAGAGCUCAACGCAGCGAGGCAAAGUGGCUGUGGCUAGACUGCCUCUCUGGAUUCCCCGUCACUCAGCAGGGCAUCUCCGAGAGAAAUGCC [A22G G41A A67G U73A U112C U134C] has a self-cleavage of 0.24. For UACGCAGGUGGUUUCCCCCUGAUAGUGCUAAGGGGGCCUGGAAGUUUGGACUGGGCAGAGCUCAACACAGCGUGGCAUAGUGGCUGUGGCUAGACUGCCUCUCUGGAUUCCUCGUCACUCAGCAGGGCAUCUCUGCGGGAAAUGCC [U5C U15C A78U A136C A138G], the self-cleavage was 1.29. Work on UACGUAGGUGGUUUUCCCCUGAUAGUGCUAGGGGGGCCUGGAAGUUUGGGCUGGGCAGAGCUCAACACAGCGUGGUAAAGUGGCUGUGGCUAGACUGCCUCUCCGGAUUCCUCGUCACUCAGCAGGGCAUCUCUGAGAGAAAUGCC [A31G A50G C76U U104C] yielded a self-cleavage of 1.45. With UACGUAGGUGGUUUUCCCCUGAUAGUGCUAAGGGGGCCUGGAAGUUUGGACUGGGCGGAGCUCAACACAGCGUGGCAAAGUGGCCGUGGCUAGACUGCCUCUCUGGAUUCCUCGUCACUCAGCAGGGCGUCUCUGAGAGAAAUGCC [A57G U85C A129G] the self-cleavage was 0.13. UACGUAGGUGGUUUUCCCCUGAUAGUGCUAAGGGGGCCUGGGAGUUUGGACUGGGCAGAGCUCAACACAGCGUGGCGAAGUGGCUGUGGCUAGACUGCCUCUCUGGAUUCCUCGUCACUCAGCAGGGCACCUCUGAGAGAAAUGCC [A42G A77G U130C] gave a self-cleavage of 1.95. In the case of UACGUAGGUGGUUUUCCCCUGAUAGUGCUAAGGGGGCCUGGAAGUUUGGACUGGGCAGAGCUCAACACAGCGUGGCAAAGUGGCUGAGGCCAGACUGCCUCUCUGGAUUCCUCGACACUCAGCAGGGCAUCUCUGAGAGAAAUGCC [U87A U91C U115A], the self-cleavage is reported as 0.05. UACGUAGGUGGUUUUCCCCUGAUAGUGCUAAGGGGGCCUGGAAGUUUGGACUGGGCAGAGCUCAACACAGCGUGGCAUAGUGGCUGUGGCUAGACUGCCCCUCUGGAUUCCUCGUCACUCAGCAGGGCAUCUCUGAGGGAAAUGCC [A78U U100C A138G] gave a self-cleavage of 2.87.
